The campaign covered roughly 360,000 compounds. About 16,000 (4.4%) were called active. The shares of active, inactive and inconclusive entries below differ from those in the screen. The call rests on the fitted dose curve; in most records, active means well fitted inhibition curve with a large enough effect; inconclusive means small, poorly fitted or top-dose-only effect; inactive means no such curve, though single readings can be large or run the other way. Potencies beside an inconclusive call are fits to weak or partial responses and may not hold up.
Molecular target: Bromodomain adjacent to zinc finger domain protein 2B (Homo sapiens) (UniProt Q9UIF8)
Assay: qHTS Assay for Inhibitors of BAZ2B; further: nearly all actives have a fitted effect of over 60% in size
Details: AlphaScreen BAZ2B-H3K14Ac peptide displacement; series mostly up to 114 µM
How it was run: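 BAZ2B (50 nM) with biotin-H3(5-23)K14Ac peptide (50 nM) in PBS pH 7.4, 0.01% Tween-20, preformed 30 min, then compound 30 min at room temperature; top concentration 110uM. AlphaScreen streptavidin donor/nickel chelate acceptor beads (10 ug/mL final), 20 min dark, signal read.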
Potency means the concentration at half of the fitted maximal effect; tags describe the fitted curve by direction and shape.

Chain of UniProt Q9UIF8 (Q9UIF8 whole entry, looked up, the tested form may be a part): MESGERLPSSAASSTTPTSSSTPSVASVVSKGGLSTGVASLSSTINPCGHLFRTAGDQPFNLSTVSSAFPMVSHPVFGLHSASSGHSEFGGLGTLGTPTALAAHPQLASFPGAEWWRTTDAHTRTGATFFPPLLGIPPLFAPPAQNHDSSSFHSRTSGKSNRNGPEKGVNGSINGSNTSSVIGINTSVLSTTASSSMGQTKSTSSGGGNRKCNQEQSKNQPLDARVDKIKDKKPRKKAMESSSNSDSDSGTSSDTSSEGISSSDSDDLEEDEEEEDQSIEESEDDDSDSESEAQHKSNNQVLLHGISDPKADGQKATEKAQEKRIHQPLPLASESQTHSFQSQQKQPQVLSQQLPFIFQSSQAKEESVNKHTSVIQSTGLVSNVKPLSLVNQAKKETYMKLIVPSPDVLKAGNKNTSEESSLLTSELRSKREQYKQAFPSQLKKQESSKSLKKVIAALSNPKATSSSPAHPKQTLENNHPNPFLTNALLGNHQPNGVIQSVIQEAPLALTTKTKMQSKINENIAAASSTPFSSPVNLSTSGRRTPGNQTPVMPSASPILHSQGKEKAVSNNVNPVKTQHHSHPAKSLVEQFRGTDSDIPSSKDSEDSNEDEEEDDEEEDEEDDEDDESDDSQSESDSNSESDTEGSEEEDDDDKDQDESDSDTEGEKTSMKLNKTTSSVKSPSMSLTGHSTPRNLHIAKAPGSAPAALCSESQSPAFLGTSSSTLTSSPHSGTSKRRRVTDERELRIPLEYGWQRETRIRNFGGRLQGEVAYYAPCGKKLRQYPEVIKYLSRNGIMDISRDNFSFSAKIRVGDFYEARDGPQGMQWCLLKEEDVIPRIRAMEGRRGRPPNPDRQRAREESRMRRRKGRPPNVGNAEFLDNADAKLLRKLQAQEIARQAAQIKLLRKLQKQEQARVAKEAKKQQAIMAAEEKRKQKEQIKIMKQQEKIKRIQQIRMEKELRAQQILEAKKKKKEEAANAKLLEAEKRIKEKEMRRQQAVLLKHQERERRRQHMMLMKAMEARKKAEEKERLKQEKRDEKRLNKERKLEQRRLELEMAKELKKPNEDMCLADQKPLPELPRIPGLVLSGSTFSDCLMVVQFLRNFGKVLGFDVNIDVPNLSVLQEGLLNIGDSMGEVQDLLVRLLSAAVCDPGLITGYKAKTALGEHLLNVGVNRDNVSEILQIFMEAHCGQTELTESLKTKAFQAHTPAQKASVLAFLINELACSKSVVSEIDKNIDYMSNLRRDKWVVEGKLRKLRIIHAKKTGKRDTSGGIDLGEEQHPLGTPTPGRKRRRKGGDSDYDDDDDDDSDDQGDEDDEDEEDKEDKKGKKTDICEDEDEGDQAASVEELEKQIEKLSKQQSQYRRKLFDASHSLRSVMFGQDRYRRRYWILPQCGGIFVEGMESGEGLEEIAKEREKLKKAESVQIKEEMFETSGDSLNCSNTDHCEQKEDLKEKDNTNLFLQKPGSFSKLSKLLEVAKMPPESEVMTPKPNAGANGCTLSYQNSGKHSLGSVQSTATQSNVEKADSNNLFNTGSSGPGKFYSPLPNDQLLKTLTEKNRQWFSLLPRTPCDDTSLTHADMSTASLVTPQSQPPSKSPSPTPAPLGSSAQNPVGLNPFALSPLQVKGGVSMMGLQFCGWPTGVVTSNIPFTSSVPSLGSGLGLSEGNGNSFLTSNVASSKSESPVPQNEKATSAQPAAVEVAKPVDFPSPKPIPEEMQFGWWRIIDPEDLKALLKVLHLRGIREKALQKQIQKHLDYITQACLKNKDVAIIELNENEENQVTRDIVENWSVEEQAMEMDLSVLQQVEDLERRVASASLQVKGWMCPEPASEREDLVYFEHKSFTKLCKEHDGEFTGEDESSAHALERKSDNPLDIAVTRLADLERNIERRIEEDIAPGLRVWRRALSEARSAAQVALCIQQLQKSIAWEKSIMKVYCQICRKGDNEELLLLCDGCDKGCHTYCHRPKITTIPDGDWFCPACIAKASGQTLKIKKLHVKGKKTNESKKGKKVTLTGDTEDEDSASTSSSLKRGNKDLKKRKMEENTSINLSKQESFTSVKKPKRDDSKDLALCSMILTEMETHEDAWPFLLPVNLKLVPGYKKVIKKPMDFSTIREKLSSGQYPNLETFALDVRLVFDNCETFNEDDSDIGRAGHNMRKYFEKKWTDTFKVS

SMILES | Potency
COc1ccccc1OCCC(=O)NNC(=O)c1ccccc1F | inactive
CCO[C@@H]1OC(C(=O)NCc2ccccc2)=C[C@H](c2cn(C(C)=O)c3ccccc23)[C@H]1CCCO | inconclusive: 89.1 µM [inhibitor, single point]
CCCCc1c(C)nc2ccc(OC)cc2c1SCCC(=O)O | inactive
Cc1cc(O)c(NC(=O)c2cc([N+](=O)[O-])ccc2Cl)cc1C | inconclusive: 10 µM [inhibitor, full curve]
CCCCN(C)CCCNC(=O)Cn1ncc2c3ccccc3n(Cc3cc(C)ccc3C)c2c1=O | inconclusive: 31.6 µM [inhibitor, full curve, poor fit]
CCOc1ccc(CNS(=O)(=O)c2ccc(-c3coc(C)n3)cc2)cc1OC | inactive
Cc1cccc(C=Nc2ccc3c(c2)oc2ccccc23)c1O | inconclusive: 89.1 µM [inhibitor, single point]
COCc1[nH][nH]c(=O)c1C=Nc1ccc(F)cc1F | inconclusive: 100 µM [inhibitor, single point]
Cc1ccccc1NNC(N)=S | inactive
CSc1ncc(Cl)c(C(=O)Nc2cccnc2)n1 | inconclusive: 89.1 µM [inhibitor, single point]
CCOC(=O)c1ccc(NC(=O)CSCc2ccco2)cc1 | inconclusive: 89.1 µM [inhibitor, single point]
COc1ccccc1NC(=O)COn1nnc2ccc(S(=O)(=O)N3CCOCC3)cc21 | inactive
N#CC1(N2CCN(C(=O)c3ccccc3)CC2)CCCCC1 | inconclusive: 89.1 µM [inhibitor, single point]
CSc1ccccc1OCc1cc(C(=O)N(C)CCn2nc(C)cc2C)no1 | inconclusive: 70.8 µM [inhibitor, single point]
Fc1ccc(CCNC(=S)Nc2ccc(F)c(Cl)c2)cc1 | inactive
Cn1c(N)c(C(=O)COC(=O)COc2ccc(Cl)cc2)c(=O)n(C)c1=O | inconclusive: 89.1 µM [inhibitor, single point]
C=CSc1sc(Cl)c(N2CCOCC2)c1[N+](=O)[O-] | active: 14.1 µM
O=C(CCSc1nnc2scc(-c3ccccc3)n12)NCc1ccc2c(c1)OCO2 | inactive
Cc1ccc(C)c(N2CCN(C(=O)c3cc(S(=O)(=O)N4CCCCCC4)cn3C)CC2)c1 | inconclusive: 28.2 µM [inhibitor, full curve]
Cc1ccn2c(=O)c(NC(=O)c3ccc(Br)o3)c(C)nc2c1 | inactive
CCC(=O)Nc1ccc(S(=O)(=O)Nc2ncccn2)cc1 | inactive
O=C(NC(=S)Nc1ccccn1)c1cccc([N+](=O)[O-])c1 | inconclusive: 79.4 µM [inhibitor, single point]
CCOc1ccc(CCNS(=O)(=O)c2ccc3c(c2)N(C(C)=O)CCO3)cc1OCC | inconclusive: 79.4 µM [inhibitor, single point]

SMILES | Potency
Cc1cc(C(=O)NNc2ccc(C(C)C)cc2)n(C(C)(C)C)n1 | inconclusive: 79.4 µM [inhibitor, single point]
O=C(NCCOc1ccc(F)cc1)C1CCC(=O)N(CCCN2CCCC2=O)C1 (centres undefined) | inconclusive: 89.1 µM [inhibitor, single point]
O=[N+]([O-])c1ccc(N2CCN(C(=S)NC3CCCCC3)CC2)cc1 | inconclusive: 31.6 µM [inhibitor, partial curve]
C#CCOCCOCCOCCNc1nc(N2CCN(C(=O)CCCCCCCCCCNC(=O)[C@@H](CCSC)n3cc(CCO)nn3)CC2)nc(N2CCN(C(=O)CCCCCCCCCCNC(=O)[C@@H]([C@H](C)O)n3cc(C)nn3)CC2)n1 | inconclusive: 100 µM [inhibitor, single point]
COC(=O)N/N=C/c1cc(C)n(-c2ccc(F)cc2)c1C | inconclusive: 50.1 µM [inhibitor, partial curve]
CCC1CCCCN1C(=O)Cn1c(=O)cc(C(F)(F)F)c2c(C)nn(C)c21 (centres undefined) | inactive
Cc1c(C(=O)O)sc(S(=O)(=O)N2CCN(C(=O)Cc3ccccc3)CC2)c1C(=O)O | inconclusive: 79.4 µM [inhibitor, single point]
Cc1ccc(N=Nc2c(C)[nH][nH]c2=O)c(C)c1 | inconclusive: 35.5 µM [inhibitor, partial curve]
Cc1nonc1NC(=O)CSc1nc2cc(Cl)ccc2c2c1CCCC2 | inconclusive: 89.1 µM [inhibitor, single point]
COc1ccc2[nH]cc(CCNC(=O)CCC3CCCCC3)c2c1 | inconclusive: 89.1 µM [inhibitor, single point]
O=C(NCCCO)Nc1ccc2nc(-c3ccco3)c(-c3ccco3)nc2c1 | active: 3.55 µM
CCc1ccccc1Nc1ccc(C(=O)O)cc1N | inconclusive: 89.1 µM [inhibitor, single point]
O=S(=O)(c1cccc(F)c1)N1CCC(Oc2ccc(-n3cnnn3)cc2)CC1 | inactive
CCc1ccc(S(=O)(=O)c2c(C(=O)c3ccccc3)cnc3ccc(CC)cc23)cc1 | inconclusive: 50.1 µM [inhibitor, partial curve]
COc1ccc(N(CC(=O)N2CCc3ccccc3C2)S(C)(=O)=O)cc1 | inconclusive: 7.08 µM [inhibitor, single point]
Cc1ccccc1NC(=O)COC(=O)CCc1nc2ccccc2c(=O)[nH]1 | inactive
O=C(NCCCc1nc2ccccc2n1Cc1ccc(Cl)cc1Cl)c1ccco1 | inconclusive: 50.1 µM [inhibitor, partial curve]
Cc1cccc(C)c1NC(=O)CC(NCCc1ccccc1)C(=O)O (centres undefined) | inactive
C#CCOCCOCCOCCNc1nc(N2CCN(C(=O)C(Cc3cc4ccccc4[nH]3)n3cc(C(N)Cc4ccc(O)cc4)nn3)CC2)nc(N2CCN(C(=O)C(CCC(=O)O)n3cc(C(N)C(C)CC)nn3)CC2)n1 (centres undefined) | active: 31.6 µM
CCOc1ccc(NC(=S)NC(=O)/C=C/c2ccc(C)cc2)c([N+](=O)[O-])c1 | inconclusive: 89.1 µM [inhibitor, single point]
COc1ccccc1NC(=O)CSC1=Nc2ccccc2C2=NC(CC(=O)NCc3cccs3)C(=O)N12 (centres undefined) | inactive
CCOC(=O)COc1cc(OCC(=O)OCC)c2c3c(c(=O)oc2c1)CCCC3 | inactive
COc1ccc(CN2CCN(C(=O)c3ccc(-c4ccccc4)cc3)CC2)c(OC)c1OC | inconclusive: 56.2 µM [inhibitor, single point]

SMILES | Potency
CC1CCC(=C(C#N)c2nc(-c3cc4ccccc4oc3=O)cs2)CC1 (centres undefined) | inactive
CCCCN(C(=O)CNC(=O)c1cccs1)C(C(=O)NC1CCCC1)c1ccncc1 (centres undefined) | inconclusive: 44.7 µM [inhibitor, partial curve]
COc1ccc(/C=N/NC(=O)COc2cccc3ccccc23)c(C(=O)O)c1OC | inconclusive: 79.4 µM [inhibitor, single point]
COc1ccc(C2C(C#N)=C(/N=C/N3CCOCC3)OC3=C2C(=O)CC(C)(C)C3)cc1OC (centres undefined) | inconclusive: 11.2 µM [inhibitor, full curve, poor fit]
CN(CCO)c1cc(N2CCN(C(=O)c3ccco3)CC2)c2nonc2c1[N+](=O)[O-] | inactive
CCOc1ccc(OCC)c(NC(=O)Nc2ccc3c(c2)N(C)C(=O)CS3)c1 | inconclusive: 31.6 µM [inhibitor, full curve]
COc1ccc(CNCc2ccc(OC)c3ccccc23)cc1 | inconclusive: 89.1 µM [inhibitor, single point]
CCSc1nnc(NC(=O)C2Cc3ccccc3CN2C(=O)c2ccco2)s1 (centres undefined) | inconclusive: 70.8 µM [inhibitor, single point]
Oc1ccc(C2C[C@H]3CC[C@@H]2C3)cc1O (some centres undefined) | inconclusive: 56.2 µM [inhibitor, partial curve]
CCCc1ccc(/C=C2\C(=O)c3ccccc3C(O)=C2C(=O)OCC)cc1 | active: 20 µM
CC(Oc1ccc(Br)cc1)C(=O)Nc1cc(Cl)ccc1N1CCN(C)CC1 (centres undefined) | inconclusive: 50.1 µM [inhibitor, partial curve]
O=C(O)c1cccc(N2C(=O)c3cc4cccc(Br)c4cc3C2=O)c1 | inconclusive: 79.4 µM [inhibitor, single point]
COc1ccc(C2C(C#N)=C(N)Oc3cc(O)ccc32)cc1Cl (centres undefined) | inactive
COC(=O)/C(=C\C(=O)c1ccc([N+](=O)[O-])cc1)Nc1ccc(OC)cc1 | active: 5.62 µM
CCN(CC)CCCNC(=O)CN1N=C(c2ccccc2)CCC1=O | inactive
O=C(N/N=C/C=C\c1cccc([N+](=O)[O-])c1)c1cccnc1 | inconclusive: 3.98 µM [inhibitor, full curve, poor fit]
C=CCn1c(SCc2nc3sc(C(=O)O)c(C)c3c(=O)[nH]2)nnc1-c1ccc(C(C)(C)C)cc1 | active: 50.1 µM
O=C(O)c1ccccc1Nc1cc(Cl)c2nonc2c1[N+](=O)[O-] | inactive
CCOC(=O)C1=C(C)NC(C)=C(C(=O)OCC)C1c1cc(N)ccc1OC(F)F | inconclusive: 50.1 µM [inhibitor, partial curve]
O=C(NCCN1CCNCC1)c1ccccn1 | inconclusive: 79.4 µM [inhibitor, single point]
COc1ccc(CCN2CC(C(=O)Nc3ccc4c(c3)OCO4)CC2=O)cc1OC (centres undefined) | inconclusive: 70.8 µM [inhibitor, single point]
COc1ccc(OC)c(CNC(=O)CN2CC(C)Sc3ccccc32)c1 (centres undefined) | inconclusive: 50.1 µM [inhibitor, partial curve]
C=CC[n+]1ccc(/C=C2\C=Cc3cc(C)ccc3N2CC)c2ccccc21 | active: 14.1 µM
